Experimental findings from the supplement of paper PMC11283458 are described below.

This is one part of the list. Most values come without repeats; read them as rough.
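Also: exons read include endogenous Mef2d, Mast2, Ergic3 and Trappc9 microexons plus the longer neural-regulated Zdhhc20, Mgrn1 and Asph cassette exons, alongside the reporter microexon.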

The subject of the test is Mef2d microexon (dual-luciferase reporter). Description: delta PSI of alternative exon relative to 0.4% DMSO control (RT-PCR) (percentage points); higher = more exon inclusion. As to conditions: concentration: not stated (optimised per compound); Neuro-2a. On the procedure: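 Reads PSI of the Mef2d reporter microexon and of endogenous mouse neural alternative exons. dPSI is relative to the 0.4% DMSO control, single replicate.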
With `CC(=O)OC1(C(=O)/C=C/c2ccccc2)CCCCC1`, the “delta PSI of alternative exon” value is -8.05.

In the case of `CC(/C=C/C(=O)NO)=C\[C@@H](C)C(=O)c1ccc(N(C)C)cc1` [Trichostatin A], the “delta PSI of alternative exon” value came to 16.3.

As for `Cc1ccc(S(=O)(=O)N/N=C/c2cc(Cl)ccc2O)cc1`, the “delta PSI of alternative exon” value came out at 15.7.

Regarding `C=CCn1c(N)c(C(=O)NN=Cc2cccs2)sc1=S`, the “delta PSI of alternative exon” value was 2.68.

As to `CCN1C(=CC(=S)Nc2ccccc2)Sc2ccccc21`, the “delta PSI of alternative exon” value was -1.68.

In the case of `Cc1onc(-c2c(Cl)cccc2Cl)c1C(=O)SCC(=O)Nc1ccc(Cl)cc1`, the “delta PSI of alternative exon” value is -8.55.

As to `O=C(Nc1ccc(-n2nc(C(F)(F)F)cc2-c2cccs2)cc1)c1cccs1`, the “delta PSI of alternative exon” value is 0.29.

In the case of `COCCCNC(=S)N/N=C/c1cccc(OC)c1O`, the “delta PSI of alternative exon” value stood at 2.73.

Regarding `CCN(CC)C(=S)NC(=S)c1ccc(C)cc1`, the “delta PSI of alternative exon” value came to 0.861.

For the compound `COc1ccc(NC(=O)CSC(=O)c2c(-c3c(Cl)cccc3Cl)noc2C)cc1`, the “delta PSI of alternative exon” value was -11.8.

For the compound `O=C1OC(CC(=O)c2csc3ccccc23)c2ccccc21` (configuration not stated), the “delta PSI of alternative exon” value was -0.926.

Consider `S=C(NN=Cc1ccccn1)NC1CC2C=CC1C2` (configuration not stated), for which the “delta PSI of alternative exon” value is 3.22.

For the compound `Nc1ccc(S(=O)(=O)Nc2cccc(C(F)(F)F)c2)cc1`, the “delta PSI of alternative exon” value came out at 2.3.

On to `COc1ccc(C(=O)C=C(C(=O)c2ccccc2)c2ccccc2)cc1CN1CCOCC1`, for which the “delta PSI of alternative exon” value was -3.5.

For `CC1(c2ccc([N+](=O)[O-])cc2)NN=C(c2ccccc2)S1` (configuration not stated), the “delta PSI of alternative exon” value is 1.09.

On to `O=C(Nc1cccc(Cl)c1)Nc1ccc(Sc2ccccc2)nc1Sc1ccccc1`, for which the “delta PSI of alternative exon” value was -0.387.

Take `CC(=O)c1sc(-c2ccccc2)cc1NS(=O)(=O)c1ccc(C)c(Cl)c1`: the “delta PSI of alternative exon” value is -0.528.

Take `CC1=C(/C=C/C(C)=C/C=C/C(C)=C/C(=O)Nc2ccc(O)cc2)C(C)(C)CCC1` [Fenretinide]: the “delta PSI of alternative exon” value was -3.27.

Turning to `O=C(CCCCCN1C(=O)c2cccc3cccc(c23)C1=O)NO` [Scriptaid], the “delta PSI of alternative exon” value was 19.

`COc1cc2ncn(-c3cc(OCc4ccccc4C(F)(F)F)c(C(N)=O)s3)c2cc1OC`: the “delta PSI of alternative exon” value is -2.92.

Take `O=C(CCCCCCC(=O)Nc1ccccc1)NO` [Vorinostat]: the “delta PSI of alternative exon” value stood at 17.3.

As to `O=S(=O)(N/N=C/c1cc(Cl)cc(Cl)c1O)c1ccc(Cl)cc1`, the “delta PSI of alternative exon” value is 15.7.

With `CC(C)(C)c1ccc2cc(C#N)c(C#N)cc2c1`, the “delta PSI of alternative exon” value was -7.29.

With `COc1ccc(C=Cc2nc3ccccc3s2)cc1OC`, the “delta PSI of alternative exon” value is -1.9.

`O=C(Nc1ccc2[nH]nc(-c3ccncc3)c2c1)[C@@H]1CCN(CC(=O)N2CCN(c3ccc(-c4ncccn4)cc3)CC2)C1`: the “delta PSI of alternative exon” value was 2.92.

Take `COc1cc(OC)c(/C=C2/C(=O)Nc3ccccc32)c(OC)c1`: the “delta PSI of alternative exon” value is -5.13.

On to `Cc1cc(NC(=O)Nc2cc(Cl)cc(Cl)c2)on1`, for which the “delta PSI of alternative exon” value stood at 1.72.

With `CCOC(=O)c1cnn2c1nc(N1CCCC1)c1ccccc12`, the “delta PSI of alternative exon” value was -0.738.

Turning to `CC(=O)Nc1cccc(-n2c(=O)n(C3CC3)c(=O)c3c(Nc4ccc(I)cc4F)n(C)c(=O)c(C)c32)c1` [Trametinib], the “delta PSI of alternative exon” value is 7.62.

With `Cc1onc(-c2ccccc2)c1C(=O)Nc1c(C(C)(C)C)nn(C)c1C(C)(C)C`, the “delta PSI of alternative exon” value was -0.671.

Turning to `O=C(C=c1[nH]c(=O)c(=Cc2ccccc2O)s1)c1cccs1`, the “delta PSI of alternative exon” value is -7.79.

With `Cc1[nH]c2ccccc2c1CCNCc1ccc(/C=C/C(=O)NO)cc1` [Panobinostat], the “delta PSI of alternative exon” value was determined as 17.1.
